According to PubChem BioAssay AID463173 (ICCB-Longwood Screening Facility, Harvard Medical School, 2010):
The campaign covered roughly 52,000 compounds. About 1,700 (3.3%) were called active. No stated cut-off is given here; in the data, active means survival mostly below about 52% (no sharp cut-off); inactive means mostly above about 56%. Some of the results follow.

Test system: Wild type
Assay: S. aureus survival, RN4220 and DeltatarO strains – OD600, teichoic acid synthesis inhibitors, primary screen (AID 463173)
Details: S. aureus RN4220 wild type/DeltatarO growth, OD600, 18 h, active compounds read low, screened at 18.75 µg/mL (by protocol)

| SMILES | survival |
| --- | --- |
| CC1=C(C(=O)Nc2ccc(C)cc2C)C(c2ccc[nH]2)n2ncnc2N1 (configuration not stated) | inactive: 72% |
| CSc1nnc2c(n1)OC(c1cccc(O)c1Cl)Nc1ccccc1-2 (configuration not stated) | inactive: 71% |
| CCOC(=O)C1CCCN(S(=O)(=O)c2ccc3c(c2)N(C)C(=O)CC(=O)N3C)C1 (configuration not stated) | inactive: 107% |
| COc1cc(-c2nnc(SCC(=O)Nc3cccc(C#N)c3)o2)cc(OC)c1OC | inactive: 119% |
| COCCCNC(=O)Cn1c(=O)n(-c2ccc(Cl)cc2)c(=O)c2c3c(sc21)CCCCC3 | inactive: 92% |
| COc1ccc(CCNC(=O)CN2C(=O)COc3ccc(S(=O)(=O)N4CCCCCC4)cc32)cc1OC | inactive: 73% |
| O=C(Cn1ncc2c3ccccc3n(Cc3ccc(Cl)cc3)c2c1=O)NC1CCCCCC1 | inactive: 90% |
| CCc1ccc(CNC(=O)c2cnc3sc(N(CC)CC)nn3c2=O)cc1 | inactive: 76% |
| CCc1ccccc1NC(=O)C(=O)NCCc1sc(-c2cccc(C)c2)nc1C | inactive: 69% |
| CCOc1ccc(-n2c(=O)c3sc4ccccc4c3n(Cc3ccc(F)cc3)c2=O)cc1 | inactive: 87% |
| Cc1ccc(NC(=O)c2ccc(CN3CC(=O)N4CCCCC4C3=O)cc2)cc1C (configuration not stated) | inactive: 73% |
| Cc1ccc(Cl)cc1N1CCN(S(=O)(=O)c2ccc3c(c2)CC(=O)N3C)CC1 | inactive: 113% |
| Cc1cccc(-c2cc3nc4c(c(N5CCCC5)n3n2)CCCC4)c1 | inactive: 123% |
| CC(C)c1cnc2c(c1SCC(=O)Nc1cccc([N+](=O)[O-])c1)c(=O)n(C)c(=O)n2C | inactive: 97% |
| COCCCNc1ncnc2c1nnn2C | inactive: 91% |
| CCn1c(SCC(=O)Nc2ccc(C)c(C)c2)nnc1-c1nonc1NC(C)=O | inactive: 117% |
| CCCCC(CC)Cn1c(Oc2ccccc2)nc2c1c(=O)n(C)c(=O)n2C (configuration not stated) | active: -2% |
| CCn1c(=S)sc2nc(C)sc21 | inactive: 99% |
| Cc1ccc(N(CC(=O)Nc2ccc(OC(F)(F)F)cc2)S(=O)(=O)c2c(C)noc2C)cc1 | inactive: 86% |

| SMILES | survival |
| --- | --- |
| Cc1[nH]c2c(C)cccc2c1CCNC(=O)c1cc2ccccc2oc1=O | inactive: 74% |
| O=c1oc2ccc3ccccc3c2cc1-c1nnc(Nc2cc(C(F)(F)F)ccc2Cl)s1 | inactive: 74% |
| COCCn1c(SCC(=O)c2c[nH]c3ccccc23)nc2cc(C(=O)NCC(C)C)ccc2c1=O | inactive: 73% |
| COc1cccc(N2CCN(C(=O)c3nc(-c4ccc(Cl)cc4)n4c3CCCCC4)CC2)c1 | inactive: 85% |
| CCOc1ccc2[nH]c(=O)c(CN(C(C)=O)C3CCCC3)cc2c1 | inactive: 104% |
| Cc1ccc(O)c(NC(=O)c2nc3nc(C)cc(C(F)F)n3n2)c1 | inactive: 131% |
| COC(=O)C1CCCc2c1[nH]c1ccc(Cl)cc21 (configuration not stated) | inactive: 142% |
| COC(=O)c1ccc(NC(=O)C2CCN(S(=O)(=O)c3ccc4c(c3)CCCN4C(C)=O)CC2)cc1 | inactive: 95% |
| Cc1nc(N2CCCC2)ncc1C(=O)NCc1ccccc1Cl | inactive: 74% |
| CCc1nnc2n1N(C(C)=O)C(c1ccc(C(C)(C)C)cc1)=C(C(C)=O)S2 | inactive: 70% |
| CCc1ccc(CNC(=O)c2cc3c(s2)-c2ccccc2OC3)cc1 | inactive: 95% |
| COc1cc(NC(=O)CSc2nc3nc(C)c(Cc4ccccc4)c(C)n3n2)cc(OC)c1OC | inactive: 77% |
| O=S(=O)(c1cccc(Cl)c1)c1nnn2c1nc(NC1CCCC1)c1sccc12 | inactive: 95% |
| Cc1cc(S(=O)(=O)NCCC2=CCCCC2)ccc1-n1cnnn1 | inactive: 103% |
| Cc1[nH]c2ccccc2c1C1(O)C(=O)N(Cc2ccc(Cl)cc2)c2ccccc21 (configuration not stated) | inactive: 47% |
| COc1ccc(CC(=O)Nc2sc3c(c2C(=O)Nc2ccc(C)cc2)CCCCC3)cc1 | inactive: 136% |
| CCc1cccc(C)c1Nc1c(-c2cccc(O)c2)nc2sccn12 | inactive: 106% |
| CC1(C)CC(NC(=O)NCc2ccc3c(c2)OCO3)CC(C)(CNC(=O)NCc2ccc3c(c2)OCO3)C1 (configuration not stated) | inactive: 117% |
| CCOC(=O)c1cc2c(=O)n3ccccc3nc2n(CC2CCCO2)c1=NC(=O)c1cc(C)cc(C)c1 (configuration not stated) | inactive: 68% |

| SMILES | survival |
| --- | --- |
| CCOC(=O)c1cnn(-c2ccc(OC)cc2)c1C1CCN(C(=O)OC(C)(C)C)CC1 | inactive: 44% |
| COC(=O)c1ccc(NC(=O)CCc2c(C)nn(-c3ccc(N4CCCC4)nn3)c2C)cc1 | inactive: 73% |
| Cn1nc(C(=O)Nc2cc(F)ccc2F)c2c1-c1ccccc1SC2 | inactive: 92% |
| CC1CCCCN1c1csc2ccc(F)cc2c1=O (configuration not stated) | inactive: 72% |
| COc1ccccc1N1CCN(C(=O)CCc2c(C)nn(-c3ccc(N4CCCC4)nn3)c2C)CC1 | inactive: 60% |
| O=C(CN1CCN(Cc2ccccc2)CC1)N1CCCCCC1 | inactive: 104% |
| Cc1cccc(-c2nc(SCc3ccc(Br)cc3)n3[nH]c(=O)cc3n2)c1 | inactive: 83% |
| CCC(C)NC(=O)CSc1nc2ccc(C(C)C)cc2cc1C#N (configuration not stated) | inactive: 103% |
| CSc1nc2sc3c(c2c(=O)n1-c1ccc(C)c(Cl)c1)CCN(C(C)=O)C3 | inactive: 76% |
| COC(=O)c1ccc(NC(=O)CSc2nc(=O)n(Cc3ccco3)c3c2CCC3)cc1 | inactive: 126% |
| CCOc1ccc(CCNC(=O)c2ccc3c(c2)c(C)c(C)n3C)cc1 | inactive: 73% |
| COC(=O)CSc1nc(-c2ccccc2)cc(C)c1C#N | inactive: 104% |
| COc1cc(C(=O)N(Cc2ccc(C(C)C)cc2)C2CCS(=O)(=O)C2)cc(OC)c1OC (configuration not stated) | inactive: 72% |
| COc1cccc(CNc2cccc3cccnc23)c1O | inactive: 108% |
| COc1cc(NC(=O)c2nnn(Cc3ccc(F)cc3)c2N)cc(OC)c1 | inactive: 74% |
| COc1ccc(-c2cc(C(F)F)n3ncc(C(=O)Nc4cc(C)on4)c3n2)cc1 | inactive: 108% |
| O=C(CSc1ccc(-c2ccccc2)nn1)N1CCCC1 | inactive: 103% |
| Cc1ccccc1C(=O)N1CCC(c2nc3ccccc3s2)CC1 | inactive: 83% |
| CC(=O)C1=C(OC(=O)C(C)C)c2ccccc2S(=O)(=O)N1Cc1ccccc1 | inactive: 102% |
